Broadly, the IC50 is the point on the concentration scale where inhibition reaches its midpoint. High values mean weaker potency, low ones greater potency.

The assay deals with T1, vitronectin (UniProt P04004 20-478).
T1 construct: also called VN
T1 sequence (looked up): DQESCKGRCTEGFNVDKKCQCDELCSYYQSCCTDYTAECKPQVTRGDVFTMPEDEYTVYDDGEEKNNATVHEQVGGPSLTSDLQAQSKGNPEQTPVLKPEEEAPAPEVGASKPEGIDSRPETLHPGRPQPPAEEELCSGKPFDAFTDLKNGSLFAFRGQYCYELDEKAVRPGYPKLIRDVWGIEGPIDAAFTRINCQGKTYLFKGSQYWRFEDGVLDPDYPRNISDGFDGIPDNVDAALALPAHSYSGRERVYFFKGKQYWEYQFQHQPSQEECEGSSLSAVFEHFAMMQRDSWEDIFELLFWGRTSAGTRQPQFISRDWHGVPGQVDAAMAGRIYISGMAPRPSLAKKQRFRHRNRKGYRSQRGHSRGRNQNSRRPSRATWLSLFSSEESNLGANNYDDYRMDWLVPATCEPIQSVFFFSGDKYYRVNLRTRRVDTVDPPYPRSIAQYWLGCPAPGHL
The assay is described as follows: competition binding assay, displacement of [^125I]-IGF-II from VN-coated wells (300 ng/well). The procedure:
Radiolabeled IGF-II (10,000 cpm) was added to vitronectin-coated wells and the number of counts bound determined after an overnight incubation and several washes. The binding is expressed as a percentage of the binding observed in the control wells with no added IGF-II or proIGF-II. The results are shown as the average of three replicates±SEM from two separate experiments.
Thus, the presence of the E domain within proIGF-II represents a structural modification that alters the binding to vitronectin. This could be due to steric hindrance by the additional domain in proIGF-II compared to IGF-II, or may be a result of an altered structure of the proIGF-II molecule that alters the affinity of proIGF-II for vitronectin.

B1: proIGF-II (ligand)
chain: not shown
For B1, the IC50 was 65.6 nM.

The record behind these values is patent US7785835 (QUEENSLAND UNIVERSITY OF TECHNOLOGY, dated 2010).
